# The supplement of paper PMC3334620
# The full ranking holds about 33,000 sequences; the median of “E-score (-0.5 to 0.5)” is about -0.036, and the highest 2% start at about 0.37. This is one part of the list.
# Target: T1, Yer064c (UniProt P40041)
# T1 sequence: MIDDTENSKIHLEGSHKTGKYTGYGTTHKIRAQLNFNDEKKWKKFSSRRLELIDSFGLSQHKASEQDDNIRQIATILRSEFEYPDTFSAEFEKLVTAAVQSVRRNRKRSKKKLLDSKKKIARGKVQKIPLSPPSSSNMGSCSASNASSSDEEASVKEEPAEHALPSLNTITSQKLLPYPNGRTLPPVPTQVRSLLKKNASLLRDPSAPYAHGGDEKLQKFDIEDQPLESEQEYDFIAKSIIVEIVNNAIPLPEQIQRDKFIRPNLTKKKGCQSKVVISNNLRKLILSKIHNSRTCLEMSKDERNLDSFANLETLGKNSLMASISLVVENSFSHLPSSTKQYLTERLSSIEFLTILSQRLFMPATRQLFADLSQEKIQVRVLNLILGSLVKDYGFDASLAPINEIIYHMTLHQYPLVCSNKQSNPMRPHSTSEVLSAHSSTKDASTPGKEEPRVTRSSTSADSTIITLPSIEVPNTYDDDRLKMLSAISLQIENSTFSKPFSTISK
# Test: PBM E-score (8-mer binding enrichment) (E-score (-0.5 to 0.5)); higher = stronger / more preferred TF binding; most listed sequences are background and not binding sites
# Conditions: protein concentration: 200 nM; construct: GST-full length
# Method in brief: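 For each ungapped eight-base word taken together with its reverse complement, the Universal PBM Analysis Suite assigned an E-score. Binding data came from GST-tagged yeast transcription factors, applied at about 100-200 nM, on universal all-10-mer Agilent arrays made double-stranded by primer extension. Fluorescent anti-GST marked bound protein, and scans were normalised with masliner.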
row,Sequence,PBM E-score
1,AATACAAA,0.173
2,ACGCGGTG,-0.199
3,AAGGGCTG,-0.261
4,CCGATATC,-0.075
5,AATTGCCA,-0.111
6,ATTGTCCG,0.0266
7,CCATAGCG,-0.0764
8,TATCACCA,-0.0277
9,AGCCAGCT,0.0903
10,AACACCTC,-0.065
11,CGCATCGA,-0.133
12,CTCGATGA,0.137
13,GGTACAAA,0.1
14,TAAAGCAA,0.036
15,CATTGCAA,-0.00565
16,CTCGCCCA,0.0251
17,AGGACGAA,-0.0374
18,AATGCCGT,-0.0266
19,CGCAGTAG,-0.0713
20,AATCACTA,0.373
21,ATTGGGGA,-0.116
22,CATGAGCC,0.247
23,TGCAGCCA,-0.133
24,AGCCTTCA,0.0305

row,Sequence,PBM E-score
1,CTAGTGAC,0.263
2,GCTTAACC,-0.0107
3,AACCACTA,-0.0904
4,GAGTAAGA,0.186
5,GGACGGGA,-0.138
6,CGCTTTTA,0.0919
7,GTTCCTGA,-0.164
8,AGTGACGC,-0.182
9,AATATGAT,0.246
10,ATCACGGC,0.092
11,AGTGCAGC,-0.0932
12,ACGATCGA,-0.0606
13,CTAGAGGC,-0.0949
14,CCGTCTCG,-0.206
15,GTGCCGGA,-0.148
16,CTGTCGGA,0.0886
17,GGCATAAC,-0.0939
18,AACATGGG,0.00261
19,AAATGCAT,-0.0564
20,ATGACAGG,-0.124
21,AGATGCTA,-0.0713
22,ACACGTGG,0.0631
23,ACAAGTCA,0.374
24,AGCAAGGC,-0.0972

row,Sequence,PBM E-score
1,CCAATCGC,-0.0891
2,ACCCTTGG,-0.133
3,TCCAGCCA,-0.198
4,TACAGTGA,0.211
5,TGCAGGCA,-0.165
6,TATTCCGA,0.0815
7,AACTTGCT,-0.108
8,CGCATAAC,-0.173
9,ATTACGTC,0.101
10,TACTGCAA,-0.0632
11,ACCTGGAG,0.0449
12,CAGGCCTC,-0.2
13,GCTCGACA,-0.0118
14,CGAAACAC,-0.028
15,GACTTCCC,0.32
16,AACAAGGC,-0.111
17,CACGATTC,0.148
18,CACGCGGC,-0.0642
19,CTAGAAAA,0.102
20,CTCTGTTC,-0.0566
21,CAATACTC,0.147
22,ATGAGCTC,0.114
23,CGATGGGC,0.12
24,ACTGTCGC,0.111

row,Sequence,PBM E-score
1,AAGGACAC,-0.0571
2,GCTAAAGA,0.16
3,TCTGATAA,0.0493
4,TATCCAAA,0.159
5,GGTAAAAA,-0.0628
6,GGCGGGAC,-0.122
7,ACCTCGTC,-0.0535
8,CGCGCCAG,-0.0825
9,GTCCTTTA,0.0876
10,GGCTTCGA,-0.176
11,CACAAAGA,0.0315
12,ACGTAGAT,-0.211
13,AGGACCAC,-0.0615
14,GATTCCAC,0.183
15,GGTGGAAA,-0.269
16,GTGCCTCA,-0.25
17,GGATAATA,-0.102
18,CTAACATA,0.161
19,GTCGCAAC,0.109
20,AAGGTGAC,0.295
21,AAAGATTC,0.291
22,GGCACGGA,-0.127
23,CTCTTGTA,0.085
24,CCTCTCTA,-0.15
